Out of some 360,000 compounds screened, about 25,000 (6.9%) were called active. Inconclusive means that the source gave no clear call. Such entries were picked first, then a sample of the others. Calls follow the shape of the dose curve; as a rule, active = well fitted inhibition curve with a large enough effect; inconclusive = small, poorly fitted or top-dose-only effect; inactive = flat fitted curve, though single readings scatter. A potency beside an inconclusive call is a rough fit, not a confirmed value.
biological target: Luciferin 4-monooxygenase (Photinus pyralis) (UniProt P08659); experiment: qHTS profiling assay for firefly luciferase inhibitor/activator using purifed enzyme and Km concentrations of substrates (counterscreen for miR-21 project); details: purified FLuc, luminescence inhibition; series mostly up to 57.5 µM; also: nearly all actives have a fitted effect of over 55% in size
Method in brief: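 Purified P. pyralis luciferase (10nM final) with 10uM D-luciferin and 10uM ATP (Km levels) in 50mM Tris acetate pH 7.5, 10mM Mg acetate, 0.01% Tween-20, 0.05% BSA; qHTS 6-point titration, ~60 µM downward; luminescence read.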
Potency is read from the fitted curve at half-maximal effect; tags tell the direction and shape of the fitted curve.

Sequence of UniProt P08659 (P08659 whole entry, looked up): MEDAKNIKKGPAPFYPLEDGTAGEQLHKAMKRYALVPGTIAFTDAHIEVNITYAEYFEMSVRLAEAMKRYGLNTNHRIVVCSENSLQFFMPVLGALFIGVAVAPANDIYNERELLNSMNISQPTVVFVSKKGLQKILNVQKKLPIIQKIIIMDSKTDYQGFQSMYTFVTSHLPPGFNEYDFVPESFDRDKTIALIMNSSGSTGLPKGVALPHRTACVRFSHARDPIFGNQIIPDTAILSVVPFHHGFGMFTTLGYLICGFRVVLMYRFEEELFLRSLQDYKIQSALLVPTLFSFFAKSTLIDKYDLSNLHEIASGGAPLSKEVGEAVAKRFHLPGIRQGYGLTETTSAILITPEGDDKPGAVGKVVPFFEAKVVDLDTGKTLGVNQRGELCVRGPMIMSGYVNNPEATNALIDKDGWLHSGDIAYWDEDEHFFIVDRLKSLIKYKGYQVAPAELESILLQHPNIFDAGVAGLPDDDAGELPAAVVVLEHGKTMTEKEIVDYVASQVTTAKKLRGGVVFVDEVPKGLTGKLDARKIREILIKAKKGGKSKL

Compound	Potency
COc1ccc(OC)c(-n2c(=S)[nH]c3c(sc(=S)n3-c3ccccc3)c2=O)c1	inconclusive: 37.9 µM [inhibitor, single point]
Oc1oc(-c2ccccc2)nc1C=Nc1cccc2ccccc12	inconclusive: 26.9 µM [inhibitor, single point]
CCOC(=O)c1cc(-c2ccccc2)n(CCC(=O)NCCc2ccccc2)c1C	inactive
CCOC(=O)N1CCN(C(=O)c2cccc(N3C(=O)NC4CC3(C)Oc3ccc(Cl)cc34)c2)CC1 (stereo unspecified)	inactive
COc1ccc(SCc2noc(C(=O)NC(C)C)c2C(=O)O)cc1	inconclusive: 21.3 µM [inhibitor, partial curve, poor fit]
CCN(CC1CCCO1)C(=O)C1CCN(C2CCN(Cc3ccccc3C)CC2)CC1 (stereo unspecified)	inactive
O=C(c1ccco1)N1CCN(c2nc(C3CC3)nc3sc4c(c23)CCCC4)CC1	inconclusive: 26.9 µM [inhibitor, single point]
CCN(C(=O)CSc1nc2ccccc2n1CC(=O)N(C)C1CCCCC1)c1ccccc1	inactive
CCC(C)N1C(=O)N(c2cccc(Cl)c2)C(C)(O)CC1(C)C (stereo unspecified)	inactive
CC(=O)NCCCOc1ccc([N+](=O)[O-])cc1Cl	inconclusive: 19 µM [inhibitor, single point]
CCc1ccc(/C=C\C(=O)N2CCc3ccccc3C2)cc1	active: 7.57 µM
Cc1ccc(NC(=O)CCC(=O)N2Cc3ccccc3Oc3ncccc32)cc1Cl	inconclusive: 13.5 µM [inhibitor, partial curve, poor fit]
COc1ccc(C(=O)COC(=O)c2ccccc2NS(=O)(=O)c2ccc(O)c([N+](=O)[O-])c2)cc1	active: 10.7 µM
O=C(CSc1nc2ccccc2s1)Nc1cc(S(=O)(=O)N2CCOCC2)ccc1Cl	inconclusive: 23.9 µM [inhibitor, partial curve, poor fit]
COc1ccc(-c2nc3sc(CCNC(=O)Cc4ccccc4)c(C)n3n2)cc1	inconclusive: 23.9 µM [inhibitor, partial curve, poor fit]
CNC(=O)c1[nH]cnc1C(=O)Nc1ccccn1	inconclusive: 21.3 µM [inhibitor, partial curve, poor fit]
COc1ccc([C@H]2CC(=O)C=C(c3cc(F)ccc3F)C2)cc1OC	inactive
Cc1ccccc1OCC(=O)Nc1ccc2c(c1)OCO2	active: 13.5 µM
S=C(NCCc1ccccc1)NCc1cccs1	inconclusive: 9.53 µM [inhibitor, single point]
O=C(CSc1ccc(Cl)cc1)Nc1cccc(-c2nnc(-c3ccco3)o2)c1	inactive
COC(=O)c1ccccc1NC(=O)NCCc1ccccc1OC	inconclusive: 37.9 µM [inhibitor, single point]
CCOc1ccccc1NC(=O)n1ncc2c(C)cccc21	active: 7.57 µM
CN1CCN(c2ccc(NC(=O)c3ccc(-c4ccc(Br)cc4)o3)cc2)CC1	inconclusive: 26.9 µM [inhibitor, partial curve]
Nc1cc(-c2ccc(Cl)cc2)nn1-c1ccccc1	active: 6.01 µM

Compound	Potency
CC1CC(=O)Nc2ccccc2N1C(=O)COc1cc(Cl)ccc1Cl (stereo unspecified)	inactive
Cc1cc(/C(N)=N/OC(=O)c2ccccc2Cl)no1	active: 1.69 µM
CC(=O)Nc1ccc(/C=C/c2ccc3cccc([N+](=O)[O-])c3n2)cc1	inconclusive: 21.3 µM [inhibitor, single point]
C=CCn1c(-c2cccs2)nc2nc3ccccc3nc21	active: 19 µM
O=C(COc1ccc(Br)cc1)N1CCC(c2ccccc2)C1 (stereo unspecified)	inconclusive: 21.3 µM [inhibitor, partial curve]
COc1ccc(CNC(=O)CN(C(=O)CCC(=O)Nc2nccs2)c2ccc3c(c2)OCO3)cc1	inactive
COc1ccc(C(=O)NC(=S)Nc2cccc(S(=O)(=O)N3CCOCC3)c2)cc1	inconclusive: 23.9 µM [inhibitor, partial curve, poor fit]
N=c1n(N)c2ccccc2n1CC(=O)c1ccc(Br)cc1	inconclusive: 23.9 µM [inhibitor, single point]
CCC(Oc1ccccc1)C(=O)NC1CCSC1=O (stereo unspecified)	inconclusive: 30.1 µM [inhibitor, partial curve, poor fit]
CCCOc1cccc(C(=O)Nc2ccc(CN3CCOCC3)cc2)c1	inconclusive: 26.9 µM [inhibitor, partial curve]
N/C(=N\N=C\c1ccc([N+](=O)[O-])cc1)c1nonc1N	inconclusive: 2.69 µM [inhibitor, partial curve]
COCCN1C(=O)C(=O)/C(=C(/O)c2ccc(S(=O)(=O)N3CCOCC3)cc2)C1c1cccc([N+](=O)[O-])c1 (stereo unspecified)	inactive
O=C(NN=C1CCCC1)c1cc(Br)ccc1O	inconclusive: 21.3 µM [inhibitor, partial curve, poor fit]
O=C(NCCCN1CCOCC1)c1cn(-c2ccccc2)nc1-c1cccs1	inconclusive: 37.9 µM [inhibitor, single point]
Cc1ccnc(NS(=O)(=O)c2ccc(NC(=O)CSc3nc(-c4ccccc4)cc(=O)[nH]3)cc2)n1	active: 13.5 µM
CC(C)[C@H](NC(=O)c1ccccc1)C(=O)Nc1ccc2c(c1)OCO2	inactive
C/C(=C\c1ccc(C(=O)O)cc1)c1ccc2c(c1)C(C)(C)CCC2(C)C	inconclusive: 37.9 µM [inhibitor, single point]
Cc1cccc(CCNC(=O)C2CCN(c3ncnc4c3nc3n4CCCCC3)CC2)c1	inactive
COC(=O)C1=C(N)Oc2cc(C)[nH]c(=O)c2C1c1ccccc1OC (stereo unspecified)	inactive
CCN(CC(=O)Nc1c(F)cccc1F)C(=O)CCC(=O)c1ccc(C)cc1	inactive
O=C(c1cc(C2CC2)nc2ccc(Br)cc12)N1N=C(C(F)F)CC1(O)C(F)F (stereo unspecified)	inactive
CCSC1=NSC2=NC(=O)/C(=C\c3coc4ccccc4c3=O)C(=N)N12	inconclusive: 26.9 µM [inhibitor, single point]
COc1cccc(C(=O)Oc2ccccc2/C=C\C(=O)c2cc3ccccc3o2)c1	inconclusive: 15.1 µM [inhibitor, partial curve]
O=C(CCN1C(=O)/C(=C/c2cccs2)SC1=S)Nc1cccc(C(=O)O)c1	inconclusive: 21.3 µM [inhibitor, partial curve, poor fit]

Compound	Potency
OC[C@H]1O[C@@H](n2cnc3c(Nc4ccccc4)ncnc32)[C@H](O)[C@@H]1O	inconclusive: 37.9 µM [inhibitor, partial curve, poor fit]
Cc1ccc(-c2nc3cnccn3c2Nc2ccc3c(c2)OCCO3)o1	inconclusive: 26.9 µM [inhibitor, partial curve, poor fit]
CC(C)(C)c1ccc(C(=O)NN2C(=O)CSC2=S)cc1	inconclusive: 23.9 µM [inhibitor, single point]
COc1ccc(NC(=O)c2ccc3c(c2)n(C)c(=O)n3C)cc1	inconclusive: 21.3 µM [inhibitor, partial curve, poor fit]
CC(Oc1ccc2c(-c3ccccc3)cc(=O)oc2c1)C(=O)N[C@H](Cc1c[nH]c2ccccc12)C(=O)O (stereo partly specified)	inconclusive: 37.9 µM [inhibitor, partial curve, poor fit]
CS(=O)(=O)N1CCC(C(=O)O)CC1	inactive
CC(C)(C)c1ccc(OCC(=O)N2CCN(c3ccccn3)CC2)cc1	active: 12 µM
Cc1oc(-c2ccccc2)nc1CNC(=O)NC1CCCCC1	inactive
O=C(Nc1ccccc1)Nc1csc2ccccc12	active: 12 µM
CCOC(=O)Cc1csc(NC(=O)c2sc3nc4ccc(CC)cc4cc3c2N)n1	inconclusive: 4.78 µM [inhibitor, partial curve]
Cc1c(NC(=O)c2cc(-c3ccc(Br)cc3)on2)c(=O)n(-c2ccccc2)n1C	inactive
O=[N+]([O-])c1ccccc1N/N=C/c1c[nH]c2ccccc12	active: 4.26 µM
O=C(COC(=O)c1cc(Cl)ccc1Cl)NC1CCCC1	inconclusive: 37.9 µM [inhibitor, partial curve, poor fit]
COc1cccc(C2Cc3ccccc3C(=O)O2)c1 (stereo unspecified)	inactive
CCn1nnc2cc(C(=O)Nc3ccc(C)cc3Br)ccc21	inconclusive: 23.9 µM [inhibitor, partial curve, poor fit]
COc1ccccc1NC(=O)COc1ccc(/C=N/NC(=O)c2cccnc2)cc1	inactive
O=C(Nc1cc([N+](=O)[O-])ccc1N1CCOCC1)c1cccs1	inconclusive: 15.1 µM [inhibitor, partial curve, poor fit]
CCn1c(C)c(C)c2cc(C(=O)Nc3cccc(Cl)c3)ccc21	inconclusive: 16.9 µM [inhibitor, single point]
O=C1CS/C(=C/C(=O)c2cccc(Cl)c2)N1	inconclusive: 30.1 µM [inhibitor, single point]
CN(C(=O)c1ccc2c(c1)OCO2)C1CCS(=O)(=O)C1 (stereo unspecified)	inactive
O=C(Cc1csc(-c2ccc(F)cc2)n1)Nc1cccc(S(=O)(=O)NC2=NCCC2)c1	inconclusive: 37.9 µM [inhibitor, partial curve, poor fit]
CCOc1cc(/C=N/NC(=O)c2nn(C)cc2Br)ccc1OCc1ccccc1	inconclusive: 3.79 µM [inhibitor, partial curve, poor fit]
CCOC(=O)Nc1nnc(-c2cccc(OC)c2)s1	inconclusive: 26.9 µM [inhibitor, single point]

Reference: PubChem BioAssay AID588342 (National Center for Advancing Translational Sciences (NCATS), 2011)
